This is an account of results in the BET-seq Pho4 binding data (Le et al. 2018).

This is one part of the list. The energies were worked out here from pooled read counts, against the library average; single values are noisy.

The assay deals with T1, Pho4 (S. cerevisiae) (UniProt P07270).
T1 sequence: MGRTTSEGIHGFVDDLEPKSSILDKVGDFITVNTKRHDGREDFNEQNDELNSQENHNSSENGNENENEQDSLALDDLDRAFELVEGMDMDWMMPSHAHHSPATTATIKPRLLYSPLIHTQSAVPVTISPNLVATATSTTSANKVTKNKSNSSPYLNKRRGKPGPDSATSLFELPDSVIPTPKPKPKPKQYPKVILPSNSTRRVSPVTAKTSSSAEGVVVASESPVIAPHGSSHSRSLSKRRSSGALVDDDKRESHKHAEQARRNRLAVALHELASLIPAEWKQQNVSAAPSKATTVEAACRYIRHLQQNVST
The assay can be described thus: relative binding free energy (BET-seq); higher = weaker binding. The following applies: reference: library average.
For CGGGGCACGTGAGTGC, the “relative binding free energy” value turned out to be 0.13 kcal/mol. In the case of GAAAACACGTGGGGGT it was -0.02 kcal/mol; in that of GGGACCACGTGAGTTG, 0.26 kcal/mol; in that of ATTTACACGTGGGACT, 0.06 kcal/mol. As to ATATGCACGTGGTGTA, the “relative binding free energy” value was -0.14 kcal/mol. As for TTTGTCACGTGGATTC, the “relative binding free energy” value amounted to 0.17 kcal/mol. Turning to CTATTCACGTGCGGTA, the “relative binding free energy” value worked out at 0.38 kcal/mol. Turning to GTAATCACGTGTGATG, the “relative binding free energy” value is 0.17 kcal/mol. For CTTTACACGTGTTGTG, the “relative binding free energy” value was -0.01 kcal/mol. In the case of GGGTTCACGTGATGGC it was 0.34 kcal/mol. With GAGTACACGTGGGTGG, the “relative binding free energy” value is 0.05 kcal/mol. Consider GTTAACACGTGGAAGG, for which the “relative binding free energy” value worked out at 0.07 kcal/mol. Consider ACTTTCACGTGGGCAT, for which the “relative binding free energy” value was determined as 0.24 kcal/mol.

With AATGGCACGTGTCTTA, the “relative binding free energy” value is -0.04 kcal/mol. Turning to TTCCGCACGTGGGGGA, the “relative binding free energy” value is -0.27 kcal/mol. In the case of TGAGGCACGTGGAAAA it was 0.16 kcal/mol; in that of TTGAGCACGTGGGATC, -0.05 kcal/mol. Turning to CGTTACACGTGTTTGG, the “relative binding free energy” value worked out at 0 kcal/mol. As to GAGGACACGTGGGCTT, the “relative binding free energy” value worked out at 0.02 kcal/mol.

As for GGCGTCACGTGGTGCA, the “relative binding free energy” value stood at 0.19 kcal/mol. In the case of GTAGGCACGTGCGGGA it was -0.1 kcal/mol; in that of GGGGGCACGTGAAGTC, 0.23 kcal/mol. In the case of GGAGGCACGTGCATTT, the “relative binding free energy” value is -0.06 kcal/mol. As to TGGAGCACGTGTCGGT, the “relative binding free energy” value is -0.03 kcal/mol. In the case of ATTTCCACGTGTTGTA it was 0.11 kcal/mol; in that of GTTGGCACGTGGTTGC, 0.05 kcal/mol; in that of ATTTTCACGTGTGTAC, 0.22 kcal/mol. Turning to TATGACACGTGGCGTT, the “relative binding free energy” value is -0.09 kcal/mol. In the case of AGTGTCACGTGTTCGG it was 0.01 kcal/mol; in that of AAGGGCACGTGGATGG, -0.08 kcal/mol; in that of TTTATCACGTGGGTCG, 0.13 kcal/mol. Turning to TCGTACACGTGAGTTG, the “relative binding free energy” value worked out at 0.22 kcal/mol. Consider AAGCTCACGTGGGTGG, for which the “relative binding free energy” value turned out to be 0.01 kcal/mol.

For ATGAACACGTGAGTTT, the “relative binding free energy” value turned out to be 0.32 kcal/mol.

As for AAGTGCACGTGACGTT, the “relative binding free energy” value was found to be 0.12 kcal/mol. With GGATGCACGTGTTGAC, the “relative binding free energy” value is 0.07 kcal/mol. Consider ATTGTCACGTGGTTCA, for which the “relative binding free energy” value came to 0.07 kcal/mol. For the sequence TGGAACACGTGGGGTC, the “relative binding free energy” value was -0.13 kcal/mol. Consider AGTTACACGTGGTGAT, for which the “relative binding free energy” value came out at 0.17 kcal/mol.

As to GAGGGCACGTGGTCTG, the “relative binding free energy” value is -0.21 kcal/mol. Turning to TCCATCACGTGTGGGG, the “relative binding free energy” value turned out to be 0.23 kcal/mol. On to AGGTACACGTGAGGTC, for which the “relative binding free energy” value came to 0.26 kcal/mol. On to TGTTACACGTGGAAAG, for which the “relative binding free energy” value was 0.2 kcal/mol. As for TTAAGCACGTGAGTGA, the “relative binding free energy” value was found to be 0.07 kcal/mol. In the case of TGTTACACGTGCGGCT it was 0.14 kcal/mol. On to GTAATCACGTGGCATG, for which the “relative binding free energy” value is 0.03 kcal/mol. Take GAGGTCACGTGATTTT: the “relative binding free energy” value is 0.26 kcal/mol. In the case of TTGCACACGTGGGGAA it was -0.05 kcal/mol; in that of TGGAGCACGTGGAGTT, 0.02 kcal/mol. In the case of TGTTTCACGTGGGTTC it was 0.16 kcal/mol.

With TTTGGCACGTGAGTAT, the “relative binding free energy” value came out at 0.15 kcal/mol. For the sequence ATGTTCACGTGATGGT, the “relative binding free energy” value was found to be 0.33 kcal/mol. In the case of AATAGCACGTGTTGGG it was -0.07 kcal/mol; in that of TGGTTCACGTGCAGTC, 0.38 kcal/mol. In the case of TATTACACGTGGTTGC it was 0.11 kcal/mol. Consider TTGGTCACGTGTTGGA, for which the “relative binding free energy” value came to 0.1 kcal/mol. On to TTGCACACGTGGGGTT, for which the “relative binding free energy” value was -0.03 kcal/mol.

With TCAAACACGTGGTGGG, the “relative binding free energy” value was -0.08 kcal/mol. Take TGAGACACGTGGTGAG: the “relative binding free energy” value is 0.03 kcal/mol. For GTATGCACGTGTCGGG, the “relative binding free energy” value is 0 kcal/mol. Take GATGCCACGTGGATGG: the “relative binding free energy” value is -0.02 kcal/mol. On to GGAGGCACGTGGTGAA, for which the “relative binding free energy” value was -0.1 kcal/mol.

As for AGCGTCACGTGATGGA, the “relative binding free energy” value was 0.17 kcal/mol.

For GAAATCACGTGTGGGC, the “relative binding free energy” value came out at 0.24 kcal/mol. With GATTGCACGTGATGAA, the “relative binding free energy” value stood at 0.2 kcal/mol.

For the sequence TGGGGCACGTGCTAAG, the “relative binding free energy” value was -0.09 kcal/mol. In the case of GGGTACACGTGAGAAG it was 0.35 kcal/mol; in that of GTATGCACGTGTAGAT, 0.1 kcal/mol. Consider AAAGGCACGTGAAGTG, for which the “relative binding free energy” value is 0.08 kcal/mol. Regarding AATAACACGTGAGGGT, the “relative binding free energy” value was determined as 0.12 kcal/mol. In the case of TTTTGCACGTGGGTAG, the “relative binding free energy” value was -0.15 kcal/mol. In the case of AAAAGCACGTGGTGTG, the “relative binding free energy” value is -0.16 kcal/mol.

As for TGACTCACGTGAATTG, the “relative binding free energy” value came to 0.43 kcal/mol. As for TGGAGCACGTGGTTAC, the “relative binding free energy” value was -0.06 kcal/mol. For TTATACACGTGGCGTT, the “relative binding free energy” value is -0.05 kcal/mol. For CGGGACACGTGAAGGT, the “relative binding free energy” value was found to be 0.5 kcal/mol.

Take TGAATCACGTGTAAGA: the “relative binding free energy” value is 0.31 kcal/mol. Regarding GCGTGCACGTGATGCG, the “relative binding free energy” value came out at 0.16 kcal/mol. In the case of GTTAGCACGTGGCGCG it was -0.08 kcal/mol. Regarding AGGCGCACGTGGGGAC, the “relative binding free energy” value was -0.22 kcal/mol. In the case of AATAGCACGTGGAAGT it was 0.01 kcal/mol; in that of GTGGGCACGTGTACGA, 0 kcal/mol. Take CTTGTCACGTGAGGGG: the “relative binding free energy” value is 0.31 kcal/mol. On to GGGGTCACGTGGGAGA, for which the “relative binding free energy” value came to 0.17 kcal/mol. As for CTTAGCACGTGTTGTA, the “relative binding free energy” value was -0.03 kcal/mol.

In the case of ACGAGCACGTGTTTGT, the “relative binding free energy” value is -0.08 kcal/mol. Turning to GACAGCACGTGTGTTT, the “relative binding free energy” value turned out to be 0.24 kcal/mol. In the case of TCTTTCACGTGCGGTG it was 0.14 kcal/mol. For the sequence TCTAGCACGTGAGTTG, the “relative binding free energy” value was 0.22 kcal/mol.

For AGGAACACGTGGGGCG, the “relative binding free energy” value was -0.11 kcal/mol. Consider GATCTCACGTGTGTTG, for which the “relative binding free energy” value turned out to be 0.16 kcal/mol.

Regarding ATTGTCACGTGCGAGG, the “relative binding free energy” value is 0 kcal/mol.

As for TGCGGCACGTGGGCTT, the “relative binding free energy” value was -0.29 kcal/mol. As for CTAATCACGTGTTGGG, the “relative binding free energy” value is 0.15 kcal/mol. In the case of TGTATCACGTGGTCAT, the “relative binding free energy” value is 0.09 kcal/mol. As to TATGTCACGTGTTCGC, the “relative binding free energy” value was 0.15 kcal/mol. In the case of ATTTGCACGTGGTTTC it was 0.04 kcal/mol; in that of AAGATCACGTGGAGGA, 0.27 kcal/mol; in that of AGGGTCACGTGTCGCT, 0.13 kcal/mol.

Take TTTTCCACGTGTAGTG: the “relative binding free energy” value was determined as 0.07 kcal/mol.

For the sequence GTCATCACGTGGGGAG, the “relative binding free energy” value amounted to 0 kcal/mol. Consider AGAAGCACGTGTGTCT, for which the “relative binding free energy” value was determined as 0.06 kcal/mol. As for TAGGTCACGTGTTGTC, the “relative binding free energy” value is 0.15 kcal/mol.

For TTTGGCACGTGGTGGT, the “relative binding free energy” value is -0.05 kcal/mol. As to ATACGCACGTGGAGGG, the “relative binding free energy” value is -0.07 kcal/mol. With TAGTTCACGTGCCGGG, the “relative binding free energy” value came to 0.11 kcal/mol. In the case of AATGTCACGTGTGACT it was 0.26 kcal/mol; in that of AGTTGCACGTGGGTGC, -0.03 kcal/mol. On to GGAGTCACGTGGCGGC, for which the “relative binding free energy” value is 0.1 kcal/mol. Regarding TGGCGCACGTGTGCTG, the “relative binding free energy” value was -0.14 kcal/mol. For the sequence TGGCGCACGTGGTGCA, the “relative binding free energy” value is -0.12 kcal/mol.

Consider GGTCCCACGTGGGTTT, for which the “relative binding free energy” value was -0.09 kcal/mol.

As for GCTAGCACGTGGTGGG, the “relative binding free energy” value is -0.12 kcal/mol. In the case of TTCGACACGTGAGGCG it was 0.26 kcal/mol; in that of GTACACACGTGGGGCG, 0.06 kcal/mol.
